# PubChem BioAssay AID1963576 (National Center for Advancing Translational Sciences (NCATS), 2024)
# The campaign covered roughly 46,000 compounds. About 60 (0.1%) were called active. Inconclusive results (about 3%) are left out. Calls come from the whole dose curve; as a rule, active = well fitted inhibition curve with a large enough effect; inconclusive = small, poorly fitted or top-dose-only effect; inactive = no such curve, though single readings can be large or run the other way. Some of the results follow.
# Test: Primary qHTS assay for Inhibitors of ovarian cancer metastasis using an organotypic tumor microenvironment (TME) model.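 For activity change, negative = inhibition: plate controls were DMSO wells for no effect and tomatine positive control wells for full effect.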 Note: nearly all actives have a fitted effect of over 65% in size.
# Settings: SKOV3ip1-GFP adhesion/invasion on 3D omental model, fluorescence; series mostly up to 45.8 µM; activity change, negative = inhibition: at the top concentration
# Summary of the method: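 A 3D layer of primary human omental fibroblasts, mesothelial cells, fibronectin and collagen I, grown 48 hr, received SKOV3ip1-GFP cells in serum-free medium plus compounds at 0.36-46 umol/L. After 2 hr RT and 16 hr 37 C, fixed adherent GFP cells were counted; normalized to DMSO and tomatine.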
Structure (SMILES),"activity change, negative = inhibition",outcome
Cc1c(C(c2ccc(O)cc2)c2c(O)c3ccccc3oc2=O)c(=O)n(-c2ccccc2)n1C (stereo unspecified),inactive: 8.53%,–
NC(=O)c1ccc(NC(=O)c2cccn(Cc3ccccc3)c2=O)cc1,inactive: -3.27%,–
Cc1ccc(-n2c(/C=C/c3cccc(C(F)(F)F)c3)nc3ccccc3c2=O)cc1,–,inactive
Cc1ccc(C)c(CN2C(=O)c3ccccc3Sc3ccc(C(=O)N4CCC5(CC4)OCCO5)cc32)c1,inactive: -31.5%,–
O=C(c1ccc2c(c1)N(Cc1c(F)cccc1Cl)C(=O)c1ccccc1S2)N1CCC2(CC1)OCCO2,inactive: -8.48%,–
O=C(Nc1ccc(OC(F)(F)F)cc1)c1cccn(Cc2ccccc2Cl)c1=O,inactive: -0.597%,–
CCn1c(CN2CCN(C)CC2)nc2ccccc21,inactive: 2.99%,–
C=C[C@@H]1CN2CCC1C[C@@H]2[C@@H](O)c1ccnc2ccccc12 (stereo partly specified),inactive: -15.5%,–
Cc1cccc(CN2C(=O)CN=C(c3ccccc3Cl)c3cc(Cl)ccc32)c1,–,inactive
COC[C@H]1OC(=O)c2coc3c2[C@@]1(C)C1=C(C3=O)C2CCC(=O)[C@@]2(C)C[C@H]1OC(C)=O (stereo partly specified),inactive: 8.8%,–
Cc1ccc(-n2c(/C=C/c3cccc4ccccc34)nc3ccccc3c2=O)cc1,inactive: 10.9%,–
Cc1cccc(-n2c(CC3C(=O)Nc4ccc(C)cc43)nc3ccccc3c2=O)c1 (stereo unspecified),inactive: -0.271%,–
NCC1(CC(=O)O)CCCCC1,inactive: 4.17%,–
COc1cccc(-n2c(/C=C/c3cccc(C)c3)nc3ccccc3c2=O)c1,inactive: -0.693%,–
Cc1cccc(Cn2cccc(C(=O)Nc3nc4ccccc4s3)c2=O)c1,inactive: -5.53%,–
CCOC(=O)c1ccc(NC(=O)CSc2nc3c(cc2C#N)N2CCC3CC2)cc1,–,inactive
CC(O)(CS(=O)(=O)c1ccc(F)cc1)C(=O)Nc1ccc(C#N)c(C(F)(F)F)c1 (stereo unspecified),inactive: -28.7%,–
CCOC(=O)c1cncn1[C@H](C)c1ccccc1,inactive: 4.07%,–
N#Cc1cc2c(nc1SCC(=O)Nc1ccc(Cl)c(C(F)(F)F)c1)C1CCN2CC1,–,inactive
COc1ccc(NC(=O)c2cccn(Cc3ccc(Cl)cc3)c2=O)c(OC)c1,inactive: -7.41%,–
O=C(COc1ccccc1[N+](=O)[O-])N1CCN(CCc2ccccn2)CC1,inactive: -2.82%,–
Cc1ccccc1-n1c(/C=C/c2ccccc2F)nc2ccccc2c1=O,inactive: 14.9%,–
O=C(Nc1ccccc1C(F)(F)F)c1cccn(Cc2ccccc2)c1=O,inactive: -5.47%,–

Structure (SMILES),"activity change, negative = inhibition",outcome
COC1(CS(=O)c2ccccc2)CCN(CCc2c[nH]c3ccc(F)cc23)CC1 (stereo unspecified),inactive: 1.79%,–
Nc1c(C(=O)Nc2ccc(Cl)c(C(F)(F)F)c2)sc2nc3c(cc12)N1CCC3CC1,–,inactive
COc1cccc(-n2c(/C=C/c3ccccc3O)nc3ccccc3c2=O)c1,inactive: -16.1%,–
COc1ccc(-n2c(/C=C\c3ccccc3F)nc3ccccc3c2=O)cc1OC,inactive: -1.95%,–
Cc1ccccc1-n1c(Cn2ncc3c(N)ncnc32)nc2cccc(C)c2c1=O,inactive: -9.47%,–
Cc1ccc(CN2C(=O)c3ccccc3Sc3ccc(C(=O)N4CCC5(CC4)OCCO5)cc32)cc1,inactive: 8.69%,–
Cc1ccccc1-n1nc(C)c2c1NC(=O)CSC2c1ccc(N(C)C)cc1 (stereo unspecified),inactive: 6.21%,–
CCCCCc1nc2ccccc2c(=O)n1-c1ccc(C)cc1,–,inactive
Cc1ccc(NC(=O)CN2C(=O)CN=C(c3ccccc3)c3ccccc32)cc1,inactive: 33.7%,–
CCCC(C)(COC(N)=O)COC(=O)NC(C)C (stereo unspecified),inactive: -8.45%,–
COc1cc(OC)c(OC)cc1C=O,inactive: -1.69%,–
CC(O)=C(C#N)C(=O)Nc1cc(Br)ccc1Br,inactive: -12.5%,–
CC(=Cc1csc(C)n1)[C@@H]1C[C@H]2O[C@]2(C)CCC[C@H](C)[C@@H](O)[C@@H](C)C(=O)C(C)(C)[C@@H](O)CC(=O)O1,inactive: -8.74%,–
CC(C)c1nn2c(=O)cc(COC(=O)Cc3ccccc3)nc2s1,–,inactive
N=c1c2c(-c3ccccc3)c(-c3ccccc3)n(Cc3ccccc3)c2ncn1C1CCC(O)CC1 (stereo unspecified),inactive: -14.4%,–
O=C(Nc1cc(C(F)(F)F)cc(C(F)(F)F)c1)c1cccn(Cc2ccccc2Cl)c1=O,–,inactive
C[C@]12CCC(=O)C(O)=C1CC[C@@H]1[C@H]3CCC(=O)[C@@]3(C)CC[C@@H]12,inactive: 0.338%,–
CCCC[N+]1(C)[C@H]2CC(OC(=O)[C@H](CO)c3ccccc3)C[C@H]1[C@H]1O[C@H]12 (stereo partly specified),inactive: -19.6%,–
CC(C)(C)c1ccc(C(=O)Nc2ccc(Cl)cc2C(=O)c2ccccc2)cc1,inactive: 15.7%,–
CCCCc1nn2c(=O)cc(COC(=O)Cc3ccccc3)nc2s1,inactive: 6.56%,–
Cc1ccccc1Cn1cccc(C(=O)Nc2nc3ccccc3s2)c1=O,–,inactive
C[C@]12CC[C@H](O)CC1=CC[C@H]1[C@H]3CCC(=O)[C@@]3(C)CC[C@@H]12,inactive: -18.3%,–
C=Cc1ccc(Cn2c(C)c(CNCCc3cc(OC)ccc3OC)c(C(=O)O)c2C)cc1,inactive: 3.88%,–
